Measurements taken from PubChem BioAssay AID686978 (National Center for Advancing Translational Sciences (NCATS), 2013).
Screen size: about 420,000 compounds; about 64,000 (15%) were called active. Inconclusive means that the source gave no clear call. Such entries were picked first, then a sample of the others. The call rests on the fitted dose curve; in most records, active means well fitted inhibition curve with a large enough effect; inconclusive means small, poorly fitted or top-dose-only effect; inactive means flat fitted curve, though single readings scatter. No potency is given beside an inconclusive call; the fits are too rough.

Assay: qHTS for Inhibitors of human tyrosyl-DNA phosphodiesterase 1 (TDP1): qHTS in cells in absence of CPT; further: nearly all actives have a fitted effect of over 55% in size
Settings: DT40 Tdp1-/- hTDP1 cells, no CPT, ATP luminescence, 48 h; activity change, negative = growth inhibition: at 46.2 µM (top of the series) unless noted
In short: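 Compound effects on proliferation are scored in DT40 Tdp1-/-;hTDP1 cells in the absence of CPT. ATP levels (CellTiter-Glo luminescence) are recorded after a ≥48 hr, 37 °C incubation.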
On the % scale 0 is the no-effect control and ±100 the full control effect; potency means the concentration at half of the fitted maximal effect; tags describe the fitted curve by direction and shape.

| Structure (SMILES) | Potency | activity change, negative = growth inhibition |
| --- | --- | --- |
| COc1ccc(N2CCN(C(=O)c3noc4c3CCCCC4)CC2)cc1 | inconclusive [inhibitor, partial curve] |  |
| O=C(Nc1nc(-c2ccccn2)cs1)C1CC(=O)N(c2ccc3c(c2)OCCO3)C1 (stereo not drawn) | active: 16.4 µM |  |
| Cc1cc(Cl)ccc1OCC(=O)NCC(c1cccs1)N1CCOCC1 (stereo not drawn) | active: 16.4 µM |  |
| Cc1ccc(C)n1C1CCS(=O)(=O)C1 (stereo not drawn) | inconclusive [inhibitor, single point] |  |
| CCOC(=O)NC(NCCc1ccccc1)(C(F)(F)F)C(F)(F)F |  | inactive: -14.6% |
| CC(Oc1ccccc1)C(=O)Nc1nnc(S(=O)(=O)N(C)c2ccccc2)s1 (stereo not drawn) | inconclusive [inhibitor, single point] |  |
| COc1cccc(CNCc2c(C(=O)O)n(Cc3ccc(C)cc3)c3cc(C)ccc23)c1OC | active: 16.4 µM |  |
| O=C(O)c1ccccc1NCN1C(=O)C2CC=C(Cl)CC2C1=O (stereo not drawn) |  | inconclusive: -32.6% [inhibitor] |
| CN(C)CCC1(C2=CCCC2)CC/C(=C/c2ccc(Cl)cc2)C1=O (stereo not drawn) | active: 8.2 µM |  |
| O=C(Nc1nc(-c2ccccn2)cs1)c1cc2ccccc2o1 | active: 7.31 µM |  |
| O=C1C(=Cc2ccc(F)cc2)Cc2ccccc21 | inconclusive [inhibitor, single point] |  |
| CCC1CCCCN1CCCNC(=O)c1ccc2c(c1)N(Cc1cccc(Cl)c1)C(=O)c1ccccc1S2(=O)=O (stereo not drawn) | inconclusive [inhibitor, single point] |  |
| CCCCCC(C)NC(=S)NC(=O)c1cc(S(=O)(=O)N2CCOCC2)ccc1C (stereo not drawn) | inconclusive [inhibitor, single point] |  |
| CC(=O)c1ccc(NC(=O)c2sc(-n3nc(C)c(Cc4ccc5c(c4)OCO5)c3C)nc2C)cc1 | active: 16.4 µM |  |
| Nc1c(N(CCC2=CCCCC2)C(=O)Cc2ccc(F)cc2)c(=O)[nH]c(=O)n1Cc1ccccc1 | inconclusive [inhibitor, single point] |  |
| O=C(Nc1cccnc1)c1ccc(N2CCCC2)c([N+](=O)[O-])c1 |  | inactive: -28.9% |
| Cc1nnc(NC(=O)CSc2nc3c([nH]c4ccccc43)c(=O)n2-c2cccc(Cl)c2)s1 | inconclusive [inhibitor, partial curve] |  |
| COc1ccc(-c2nc3ccccc3o2)cc1NC(=O)c1cc(Br)ccc1OC |  | inactive: 8.67% |
| COc1ccccc1N1CCN(C(c2cccs2)C(C)NC(=O)C(=O)N2CCCCC2)CC1 (stereo not drawn) |  | inactive: 1.32% |
| O=C(NCCc1nc2ccccc2n1Cc1ccc(Cl)cc1)c1ccccc1 | inconclusive [inhibitor, single point] |  |
| O=C(Nc1cccc(-c2nnc(-c3ccccc3)o2)c1)C1CCCCC1 | active: 18.4 µM |  |
| CCOC(=O)c1ccccc1NC(=O)c1sc2nc(-c3ccc(F)cc3)cn2c1C |  | inactive: -0.672% |
| CC1CC[C@@]2(OC1)OC1CC3C4CC[C@@H]5CC(O)CC[C@@]5(C)C4CC[C@]3(C)C1C2C (stereo partly drawn) |  | inactive: -3.79% |
| CCOC(=O)CC1C(=O)NCCN1C(=O)COc1ccc(Br)cc1C (stereo not drawn) |  | inactive: -1.36% |
| c1ccc(NC2=NCCN2CCC2CCCC2)cc1 |  | inactive: -17.7% |
| CCC1(C)Cc2ccccc2-c2nc(NN)[nH]c(=O)c21 (stereo not drawn) |  | inactive: 9.25% |

| Structure (SMILES) | Potency | activity change, negative = growth inhibition |
| --- | --- | --- |
| CC(c1ccccc1)c1nnc(NC(=O)Nc2ccccc2F)s1 (stereo not drawn) | inconclusive [inhibitor, single point] |  |
| O=C(NCc1ccccc1Cl)c1cnc2n(c1=O)CCS2 |  | inactive: -4.39% |
| CCOC(=O)CSc1nc2c(sc(=S)n2CCc2ccccc2)c(=O)n1Cc1ccco1 | active: 16.4 µM |  |
| Nc1nc2nn(-c3ccccc3)nc2c(=O)[nH]1 | inconclusive [inhibitor, single point] |  |
| Cc1noc(C)c1C(=O)N1CCC[C@@]2(CCN(C(c3ccccc3)c3ccccc3)C2)C1 | inconclusive [inhibitor, partial curve] |  |
| C=CCSc1nnc(NC(=O)CCN2C(=O)C3CC=CCC3C2=O)s1 (stereo not drawn) |  | inactive: 1.1% |
| Cc1ccc2occ(CC(=O)Nc3c(C)cccc3C)c2c1 |  | inactive: -21.3% |
| COc1cc(/C=N/Nc2nc3ccccc3s2)cc([N+](=O)[O-])c1O | inconclusive [inhibitor, partial curve] |  |
| COc1ccc(CNCCS(=O)(=O)NC2CCCCC2)cc1 | inconclusive [inhibitor, single point] |  |
| COC(=O)c1ccccc1NC(=O)N1CCN(S(=O)(=O)c2ccc(Cl)cc2)CC1 | inconclusive [inhibitor, single point] |  |
| COc1ccc(-c2coc3cc4oc(=O)c5ccccc5c4cc23)cc1F | active: 0.651 µM |  |
| CN1CCN(c2nc3c(c(=O)n(C)c(=O)n3C)n2Cc2cccc3ccccc23)CC1 |  | inactive: -29.7% |
| CC(C)c1ccc(NC(=O)C2=NNC(=O)CC2)cc1 |  | inactive: 0.0505% |
| Cc1nc2ccn(Cc3ccccc3)c(=O)c2cc1C(=O)N1CCN(c2ccccc2)CC1 |  | inactive: -15.8% |
| CCCS(=O)(=O)NC(=O)C1(C)CCCN(C(=O)Cc2ccc3ccccc3c2)C1 (stereo not drawn) |  | inactive: -0.118% |
| Cc1cc(C)cc(NCc2nnc3n2CCCCC3)c1 |  | inactive: -5.29% |
| CCCN(C(=O)c1ccc2c(=O)n3c(nc2c1)CCCCC3)c1cccc(Cl)c1 | active: 16.4 µM |  |
| C/C(=N\Nc1nc(C(=O)O)cs1)c1ccccc1 |  | inactive: -22.9% |
| CC1CCCN(C(=O)COC(=O)c2cc([N+](=O)[O-])ccc2N2CCOCC2)C1 (stereo not drawn) | inconclusive [inhibitor, partial curve] |  |
| Cc1cc(Cl)ccc1OCC(=O)NCc1ccncc1 | inconclusive [inhibitor, partial curve, poor fit] |  |
| COc1ccc([N+](=O)[O-])cc1N(CC1CO1)S(=O)(=O)c1ccc(C)cc1 (stereo not drawn) | inconclusive [inhibitor, partial curve] |  |
| COc1ccccc1OCCNC(=O)C(c1ccccc1)c1ccccc1 | inconclusive [inhibitor, full curve, poor fit] |  |
| CCN1C(=NCCCOC(C)C)N[C@@H](c2ccccc2)[C@H](C(=O)OC)[C@H]1C |  | inconclusive: -31.7% [inhibitor] |
| COc1cc2c(cc1OC)C(c1cccs1)NCC2 (stereo not drawn) |  | inconclusive: -22.6% [inhibitor] |
| COc1cccc(CN2CCC2(C)C(=O)NCc2cccc(C(F)(F)F)c2)c1OC (stereo not drawn) | active: 13 µM |  |
| CCOc1cc(/C=N/Nc2nn3cnnc3c3ccccc23)ccc1O | inconclusive [inhibitor, partial curve] |  |

| Structure (SMILES) | Potency | activity change, negative = growth inhibition |
| --- | --- | --- |
| Cc1nc2c(C)cccc2cc1C(=O)N/N=C/c1cccnc1 | active: 6.51 µM |  |
| O=C(C1CC1)N(Cc1ccco1)c1nc(-c2ccccc2)cs1 | inconclusive [inhibitor, single point] |  |
| Clc1ccccc1-c1nc2ccccc2[nH]1 |  | inactive: -10.2% |
| Cc1ccc(OCc2nnc(SC3CCc4ccccc4C3=O)n2C)cc1 (stereo not drawn) | inconclusive [inhibitor, partial curve] |  |
| CC(C)c1ccc(N(CC(=O)N/N=C/c2ccc(OC3CSC3)cc2)S(=O)(=O)c2ccccc2)cc1 | inconclusive [inhibitor, single point] |  |
| CC(=O)N1CCc2cc(Br)cc(S(=O)(=O)CCC(=O)NCc3ccc(F)cc3)c21 | inconclusive [inhibitor, single point] |  |
| CCCCN(Cc1ccco1)C(=O)c1cc2c(=O)[nH]c3ccc(C)cc3c2s1 | inconclusive [inhibitor, single point] |  |
| Cc1ccc(C)c(-n2nnnc2SCC(=O)NCC2CCCO2)c1 (stereo not drawn) |  | inactive: 6.13% |
| C=CCc1c(C)nc(C)nc1N/N=C/c1ccccc1O | active: 23.1 µM |  |
| COc1ccc(-c2nc3cc(C)ccn3c2NCC2CCCO2)cc1OC (stereo not drawn) |  | inactive: -0.0502% |
| O=C(NCCNC(=O)c1cc(Cl)ccc1Cl)c1ccco1 |  | inactive: -12% |
| COc1ccc(/C(C)=N\O)cc1OC |  | inactive: -17.5% |
| CCN(N)C(=S)Nc1ccc(F)cc1 |  | inactive: -1.74% |
| Cc1c(C(=O)NCCC2=CCCCC2)oc2ccc(S(=O)(=O)N3CCOCC3)cc12 | active: 20.6 µM |  |
| COc1cccc(N/C=C/C(=O)c2ccc(OC)c(OC)c2)c1 | inconclusive [inhibitor, partial curve, poor fit] |  |
| CN(CC1CCCN(CCc2cccc(C(F)(F)F)c2)C1)C(=O)c1cc2ccccc2o1 (stereo not drawn) | active: 13 µM |  |
| CC(=O)Nc1ccc(-c2ccnc3c2CC(C(=O)NCc2cccc(Cl)c2)O3)cc1 (stereo not drawn) | active: 2.31 µM |  |
| Cc1c(C(=O)N2CCN(Cc3nccn3C)CC2)oc2c(F)cccc12 | inconclusive [inhibitor, single point] |  |
| Nn1c(SCc2ccccn2)nncc1=O |  | inactive: -9.51% |
| CCN(CC)c1ccc(/C=N/Nc2cccc(C)c2)c(O)c1 | inconclusive [inhibitor, single point] |  |
| Cc1cccc(NC(=O)CN2C(=O)C(c3ccc(F)cc3)=NC23CCCCCC3)c1C | inconclusive [inhibitor, single point] |  |
| CC(C)C[C@@]12C(=O)N(c3cccc(F)c3)C(=O)N1[C@H](c1ccc(Cl)cc1)[C@@H]1C(=O)N(C3CCCCC3)C(=O)[C@@H]12 |  | inactive: -17.7% |
| COc1cc(/C=C(\C#N)c2nn(CCO)c(N)c2C#N)cc(OC)c1OC |  | inactive: -28.6% |
| CCOc1ccccc1NC(=O)c1ccc2c(c1)C(=O)N(C(C)(C)C)C2=O |  | inconclusive: -30.1% [inhibitor] |
| CCN(CC)S(=O)(=O)c1ccc(N2CCCC2)c(NC(=O)CSCc2c(C)noc2C)c1 | inconclusive [inhibitor, single point] |  |
| CCCSc1ccc2nc(-c3ccccc3)cn2c1 | active: 16.4 µM |  |
